Certain results were filed several times, with different values. Only these are listed. The source may hold further records. The records of an entry are repeated measurements in other runs, samples, wells, individuals or studies.

The values below come from PubChem BioAssay AID1963979 (Molecular Pharmacology Branch, DTP, NCI, 2024).

The experiment has as its system 361931-004-R-J1-PDC multicell spheroid viability. Kind of experiment: Anticancer human tumor 361931-004-R-J1-PDC patient-derived colon adenocarcinoma cell line growth inhibition [PI3K]. The settings on record: for IC50: compound alone; for viability, T/C: stronger effect = lower value. The text has this: Combinatorial screen of targeted agents with the PI3K inhibitors inavolisib, alpelisib, duvelisib, and copanlisib in multi-cell type tumor spheroids
A high-throughput screen of multi-cell type tumor spheroids was designed to identify active combinations of targeted small molecules and PI3K pathway inhibitors. Complex spheroids include a stromal component modeled by human endothelial cells (HUVEC) and fibroblasts modeled by human mesenchymal stem cells (MSCs). The concentration ranges selected for each drug and investigational agent were based upon clinically achievable concentrations if the clinical Cmax of the agent was known.
Compounds. The drugs and investigational agents: inavolisib (NSC800729), alpelisib (NSC765974), duvelisib (NSC772469), copanlisib (NSC816437), ipatasertib (NSC767898), afuresertib (NSC778305), talazoparib (NSC767125), sapanisertib (NSC764658), selumetinib (NSC741078), tovorafenib (DAY101, NSC766906), vemurafenib (NSC761431), ravoxertinib (NSC781343), sotorasib (NSC818433), MRTX1133 (NSC 836407), abemaciclib (NSC 768073), palbociclib (NSC758247), venetoclax (NSC 766270), SY5609 (NSC837396), enzalutamide (NSC755605), and darolutamide (NSC825331), were obtained from the National Cancer Institute (NCI) Developmental Therapeutics Program Chemical Repository. The FDA-approved anticancer drug set is available from the NCI Developmental Therapeutics Program. […] The stock solutions were prepared in dimethyl sulfoxide (DMSO, Sigma-Aldrich, St. Louis, MO, cat. D2650) at 800-fold the tested concentration and stored at -70 degrees C prior to their use. All drugs and investigational agents were tested over a range starting from a high concentration at or near the clinical Cmax and decreasing in half-log increments. If the clinical Cmax for an agent had not been determined, the highest concentration tested was 10 microM.
Cell Culture. All cells were maintained in an incubator at 37 degrees C and 5% CO2 with 95% humidity. The PDC lines were cultured according to standard operating procedures established by the NCI PDMR (https://pdmr.cancer.gov/sops/default.htm). All PDCs were thawed and cultured in Matrigel-coated flasks prepared with a working solution of 1X Ham's F-12 nutrient mix, without supplementation (Invitrogen, Waltham, MA, cat. 11765054), 100 U/mL penicillin-streptomycin (Invitrogen, cat. 15140122), and 2.5% Matrigel (Corning Inc., Corning, NY, cat. 354248) for the first three passages. The 354836-022-R-J1-PDC, 475296-252-R-J1-PDC, and 997726-040-R-J2-PDC lines were cultured in 6A media, which includes advanced DMEM/F-12 (Thermo Fisher Scientific, cat. 12634028), 10 mM HEPES (Thermo Fisher Scientific, cat. 15630080), 1X GlutaMAX supplement (Thermo Fisher Scientific, cat. 35050061), 0.1 mg/mL primocin (InvivoGen, San Diego, CA, cat. ant-pm-2), 10% defined fetal bovine serum, heat inactivated (HyClone Laboratories Inc., Logan, UT, cat. SH30070.03HI), 50% L-WRN conditioned media (ATCC, cat. CRL-3276), 1.25 mM N-Acetyl-L-cysteine (Sigma-Aldrich, cat. A9165), 10 mM nicotinamide (Sigma-Aldrich, cat. N0636), 1X B-27 supplement (Thermo Fisher Scientific, cat. 17504044), 1X N-2 supplement (Thermo Fisher Scientific, cat. 17502048), and 10 microM Y-27632 dihydrochloride (Tocris Bioscience, Bristol, United Kingdom, cat. 1254). The 624824-186-R-J2-PDC line was cultured in 6C/Colon 1B media, which includes all 6A media components plus 50 ng/mL human EGF recombinant protein (Thermo Fisher Scientific, cat. PHG0311). […]
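Further: spheroids exposed to agents for seven days before readout.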

As to `Cn1ncc(Cl)c1-c1cc(C(=O)NC(CN)Cc2cccc(F)c2)sc1Cl` (stereo unspecified), the IC50 is reported as 1.39 µM, 665 nM, 2.68 µM, 2.69 µM. Further, the viability, T/C (compound alone 0.316 µM) is 74.4, 63, 92.7, 98.8%. Moreover, the viability, T/C (compound alone 1 µM) is 50.8, 41.1, 71.6, 67.2%.

`Cc1nc(NC(=O)N2CCCC2C(N)=O)sc1-c1ccnc(C(C)(C)C(F)(F)F)c1` (stereo unspecified): under “compound alone 0.1 µM”, the viability, T/C was 97.3, 102, 104, 95.6, 92.6, 79, 103, 107%.

In the case of `C#Cc1c(F)ccc2cc(O)cc(-c3ncc4c(N5CC6CCC(C5)N6)nc(OCC56CCCN5CC(F)C6)nc4c3F)c12` (stereo unspecified), the viability, T/C (compound alone 10 µM) is recorded as 72, 65.7, 87.8, 97.5%.

Consider `CC1(C)CCC(CN2CCN(c3ccc(C(=O)NS(=O)(=O)c4ccc(NCC5CCOCC5)c([N+](=O)[O-])c4)c(Oc4cnc5[nH]ccc5c4)c3)CC2)=C(c2ccc(Cl)cc2)C1`, for which the viability, T/C (compound alone 3.16 µM) is on record as 65.5, 65.1, 79.5, 93.5%.

As to `Cn1ncnc1[C@H]1c2n[nH]c(=O)c3cc(F)cc(c23)N[C@@H]1c1ccc(F)cc1`, the viability, T/C (compound alone 0.1 µM) is 78.3, 87.4, 104, 92.8%.

As for `CC(C)NCC(C(=O)N1CCN(c2ncnc3c2C(C)CC3O)CC1)c1ccc(Cl)cc1` (stereo unspecified), the IC50 is listed as 1.38, 1.44, 2.88, 4.35 µM. For the same compound, the viability, T/C (compound alone 1 µM) was 53.7, 58.3, 74.1, 87.3%.

In the case of `CCN1CCN(Cc2ccc(Nc3ncc(F)c(-c4cc(F)c5nc(C)n(C(C)C)c5c4)n3)nc2)CC1`, the viability, T/C is listed as 81.9, 86.4, 104, 108% (compound alone 0.0316 µM); 78.8, 97.2, 117, 108% (compound alone 0.316 µM); 76.8, 73.1, 104, 90.5% (compound alone 1 µM).

For `CC1(C)CCC(Nc2ncc(C(F)(F)F)c(-c3c[nH]c4c(P(C)(C)=O)c(C#N)ccc34)n2)CN1` (stereo unspecified), the viability, T/C reads like this: (compound alone 0.0316 µM) 85.5, 73.7, 109, 96.5%; (compound alone 0.316 µM) 59.5, 69.1, 90.4, 92.5%; (compound alone 1 µM) 84.4, 70.4, 105, 90.6%; (compound alone 3.16 µM) 81.6, 66.9, 102, 87.2%.
